In all, about 310,000 compounds went through this assay and about 2,200 (0.71%) showed an effect of 50% or more. The effect is printed as a negative number. This is one part of the list.
Target: human ether-à-go-go-related gene (hERG) potassium channel (human, UniProt Q12809)
Test: primary screen, population patch clamp on CHO cells stably expressing hERG

human ether-à-go-go-related gene (hERG) potassium channel, sequence (Q12809 whole entry, looked up): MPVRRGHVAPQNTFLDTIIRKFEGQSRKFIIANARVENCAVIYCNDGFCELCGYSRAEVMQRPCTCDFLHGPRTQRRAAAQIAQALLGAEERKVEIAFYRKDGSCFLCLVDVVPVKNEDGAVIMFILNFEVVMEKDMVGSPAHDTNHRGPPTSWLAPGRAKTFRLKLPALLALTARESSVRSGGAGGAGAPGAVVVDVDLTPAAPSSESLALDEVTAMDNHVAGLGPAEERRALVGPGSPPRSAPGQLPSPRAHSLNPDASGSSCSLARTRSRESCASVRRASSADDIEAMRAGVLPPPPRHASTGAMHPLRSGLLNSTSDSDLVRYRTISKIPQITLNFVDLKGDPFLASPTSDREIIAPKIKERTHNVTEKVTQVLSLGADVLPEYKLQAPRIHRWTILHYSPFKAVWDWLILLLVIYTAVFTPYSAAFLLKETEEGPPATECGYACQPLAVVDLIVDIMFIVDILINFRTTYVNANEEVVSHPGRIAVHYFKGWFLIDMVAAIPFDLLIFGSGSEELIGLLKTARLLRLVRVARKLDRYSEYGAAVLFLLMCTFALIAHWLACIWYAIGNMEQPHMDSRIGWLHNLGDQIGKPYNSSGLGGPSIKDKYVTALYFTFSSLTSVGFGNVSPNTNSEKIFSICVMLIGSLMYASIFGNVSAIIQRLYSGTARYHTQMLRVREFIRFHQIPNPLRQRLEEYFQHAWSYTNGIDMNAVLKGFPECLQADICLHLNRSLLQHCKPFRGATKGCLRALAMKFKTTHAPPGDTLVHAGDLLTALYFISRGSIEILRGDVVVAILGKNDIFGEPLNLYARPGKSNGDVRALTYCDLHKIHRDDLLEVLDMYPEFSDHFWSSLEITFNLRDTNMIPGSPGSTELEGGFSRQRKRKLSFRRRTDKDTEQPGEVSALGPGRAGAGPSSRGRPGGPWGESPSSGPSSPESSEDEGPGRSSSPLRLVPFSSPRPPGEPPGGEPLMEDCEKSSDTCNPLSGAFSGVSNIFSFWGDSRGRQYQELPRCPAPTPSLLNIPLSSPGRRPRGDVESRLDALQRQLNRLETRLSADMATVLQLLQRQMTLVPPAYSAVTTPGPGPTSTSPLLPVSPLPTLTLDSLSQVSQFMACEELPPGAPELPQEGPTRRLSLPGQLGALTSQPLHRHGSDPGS

| Structure (SMILES) | hERG current change (%, negative = inhibition) at 1uM |
| --- | --- |
| O=C(CSc1ncn[nH]1)N1CCOCC1 | 12.9% |
| O=C(CSc1nnc(-c2ccc(Cl)s2)o1)N1CCc2ccccc21 | -5.29% |
| Cn1c(Cn2c(=O)sc3ccccc32)nnc1SCC(=O)N1CCc2ccccc21 | 0.539% |
| CC1CCN(C(=O)CSc2nnc(CNC(=O)c3ccc(S(=O)(=O)N(C)C)cc3)o2)CC1 | 16.4% |
| Cc1c(-c2ccccc2)c(P(=O)(N2CCOCC2)N2CCOCC2)c2ccccn12 | 10.5% |
| COc1ccc(C(=O)NNC(=O)C(=O)NC(C)c2ccccc2)cc1OC (stereo not shown) | 0.854% |
| CCOC(=O)c1cc(S(=O)(=O)N2CCc3ccccc32)cn1C | 8.9% |
| Cc1ccc(C(=O)N2CCC(Cc3ccccc3)CC2)cc1[N+](=O)[O-] | 7.84% |
| CC1(C)CC(=O)c2cnc(NC(=O)c3ccco3)nc2C1 | 11.3% |
| O=C(N/N=C\c1ccc(Cl)s1)c1cccs1 | 11.8% |
| CCOC(=O)/C(=C/C1=CC(=C/N(C)C)/C(=O)O1)C(C)=O | 10.2% |
| Brc1ccc2ncc(Br)cc2c1 | 15.7% |
| CC(=O)OC1C2CCC1C(N1CCCCC1)CC2.Cl (stereo not shown) | 12% |
| Nc1cc(=O)[nH]c(=O)n1Cc1ccccc1 | 10.9% |
| O=C(Nc1nc(N2C(=O)c3ccccc3C2=O)n(-c2ccccc2)n1)c1ccc(Cl)cc1 | 6.92% |
| O=C(CNC(=S)N(Cc1ccccc1)Cc1cccnc1)NC1CC1 | 1.65% |
| Cc1ccccc1C(=O)Nc1nnc(SC(C)C)s1 | 14.4% |
| CC(C)C(=O)Nc1nnc(SCC(=O)NCC2CCCO2)s1 (stereo not shown) | 5.14% |
| COc1ccc(NS(=O)(=O)c2ccc(N3CCOCC3)c(NC(=O)c3cccc(F)c3)c2)cc1 | -2.11% |
| COc1cc(/C=N/Nc2nc3ccccc3o2)cc(OC)c1O | 12.8% |
| CCOC(=O)N1CCN(C(=O)C2CC(=O)N(c3ccccc3)C2)CC1 (stereo not shown) | 9.88% |
| O=C(Oc1c(Cl)cc(Cl)c2ccccc12)N1CCCCC1 | 6.81% |
| COc1ccccc1NC(=O)c1c(C)oc2c1CCCC2 | 8.91% |

| Structure (SMILES) | hERG current change (%, negative = inhibition) at 1uM |
| --- | --- |
| NC(=O)Cn1nnc(-c2ccc(NC(=O)c3ccc(F)cc3)cc2)n1 | 4.51% |
| COc1ccc(CCn2c(-c3ccc(OC)cc3)nc3c(c(=O)c4ccccc4n3C)c2=O)cc1 | 13.8% |
| CC(C)CC(NC(N)=O)C(=O)OCC(=O)Nc1ccc(OC(F)F)cc1 (stereo not shown) | 2.96% |
| COc1ccc(OC)c(CNc2ccc(F)c(Cl)c2)c1 | 13.7% |
| CC(NC(=O)c1ccco1)c1cccc2ccccc12 (stereo not shown) | 0.0621% |
| CC(C)OC(=O)NCN1C(=O)C2C3C=CC(C3)C2C1=O (stereo not shown) | 14.8% |
| Cn1c(=O)c(C(=O)CSc2ccccc2)c(N)n(Cc2ccccc2)c1=O | 15.7% |
| CC1CCN(S(=O)(=O)c2cccc(C(=O)N(C)C3CCS(=O)(=O)C3)c2)CC1 (stereo not shown) | 13.1% |
| COc1cccc(C2c3[nH]c4ccccc4c3C[C@H]3C(=O)N(C4CC4)CC(=O)N23)c1 (stereo partly shown) | 7.67% |
| COc1ccc(CCN2C(=O)CC(C(N)=O)SC2=Nc2ccc(F)cc2)cc1OC (stereo not shown) | 6.66% |
| CCOC(=O)C1CCCN(c2c(NCCN3CCCCC3CC)c(=O)c2=O)C1 (stereo not shown) | 4.74% |
| CC(C)CNc1c(N)c(=O)oc2ccccc12 | 0.11% |
| Cn1c(CSCc2ccc(Cl)c(Cl)c2)n[nH]c1=S | 6.44% |
| O=C(c1ccccc1)c1ccc(N2CCOCC2)c(F)c1 | 12.3% |
| Cc1ccc(NC(=O)CSc2n[nH]c(C)c2[N+](=O)[O-])cc1 | 7.62% |
| Cn1c(=O)c2c(nc(N/N=C/c3cccnc3)n2Cc2ccc(F)cc2)n(C)c1=O | 14.3% |
| Oc1ccc(NCc2cccs2)cc1 | 4.52% |
| CNC(=O)N(O)C1N(/N=C/c2cccs2)C(=S)SC1(C)C (stereo not shown) | 13.4% |
| CCOc1ncccc1C(=O)OC(C)C(=O)Nc1ccc(CC)cc1 (stereo not shown) | 12.9% |
| Cc1csc(SCC(=O)Nc2cc(C(C)(C)C)nn2-c2ccccc2)n1 | 1.88% |
| CCC1CCCCN1CCCNC(=O)c1cn(CC)c2ccc(S(=O)(=O)N3CCc4ccccc4C3)cc2c1=O (stereo not shown) | 1.2% |
| CC1CN(C(=S)NC(=O)c2ccc([N+](=O)[O-])cc2)CC(C)O1 (stereo not shown) | 5.35% |
| Cc1cnccc1CNC(=O)C1CCC(=O)N(Cc2ccc(Cl)cc2)C1 (stereo not shown) | -6.11% |

From paper PMC4336329 (PLoS ONE, 2015)
